Data as given in PubChem BioAssay AID1347428 (National Center for Advancing Translational Sciences (NCATS), 2020).
The whole screen tested about 91,000 compounds, of which about 290 (0.32%) were called active. Inconclusive means that the source gave no clear call. Such entries were picked first, then a sample of the others. Calls follow the shape of the dose curve; as a rule, active = well fitted inhibition curve with a large enough effect; inconclusive = small, poorly fitted or top-dose-only effect; inactive = no such curve, though single readings can be large or run the other way. Where the call is inconclusive, the potency comes from a doubtful curve fit.
% is scaled to controls: 0 for no effect and ±100 for the full control effect; potency is read from the fitted curve at half-maximal effect; tags tell the direction and shape of the fitted curve.
Also: nearly all actives have a fitted effect of over 25% in size.

Each molecule was assayed against Single-stranded DNA cytosine deaminase (Homo sapiens) (UniProt Q9GZX7) (assay: Primary qHTS assay for inhibitors of Activation Induced Cytidine Deaminase (AID): AID signal). Conditions: AID deamination FRET fluorescence, UDG-coupled, 4 h; activity change, negative = inhibition: at 115 µM (top of the series).
Chain of UniProt Q9GZX7 (Q9GZX7 whole entry, looked up): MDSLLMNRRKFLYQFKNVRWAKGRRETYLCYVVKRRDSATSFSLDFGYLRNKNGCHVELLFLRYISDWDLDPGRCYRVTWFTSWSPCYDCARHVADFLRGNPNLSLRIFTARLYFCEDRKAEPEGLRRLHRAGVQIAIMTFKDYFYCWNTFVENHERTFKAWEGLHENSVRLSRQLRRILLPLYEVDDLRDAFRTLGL
`CN(C)CCCNc1nc(-c2ccncc2)nc2ccccc12` was tested, and the “activity change, negative = inhibition” value was inactive: -15.1%.
With `CCOC(=O)C1=C(CN(C)Cc2ccccc2)NC(=O)NC1c1ccc(OC(C)C)cc1` (stereo unspecified) the Potency was inconclusive: 44.7 µM [inhibitor, partial curve, poor fit].
With `CCCCN(C)CC(O)Cn1cc(/C=C/C(=O)c2ccc(OCC)cc2)c2ccccc21` (stereo unspecified) the Potency was inconclusive: 39.8 µM [inhibitor, full curve, poor fit].
`CCn1c(C(=O)NCc2ccccc2)cc2sc(Cl)cc21` was tested, and the Potency was inconclusive: 70.8 µM [inhibitor, single point].
`Cc1ccc(CNC(=O)c2ccc(CSCc3c(F)cccc3Cl)o2)cc1` was tested, and the Potency was inconclusive: 31.6 µM [inhibitor, partial curve].
With `O=C(c1cc(O)c(O)c([N+](=O)[O-])c1)c1ccccc1F` the Potency was inconclusive: 56.2 µM [inhibitor, partial curve, poor fit].
For `CCCOc1ccc(Cn2c(=O)sc3ccccc32)cc1`, the Potency was inconclusive: 70.8 µM [inhibitor, single point].
In the case of `O=C(COC(=O)C(Cc1ccccc1)N1C(=O)C2C3CC(C(Br)C3Br)C2C1=O)c1ccc([N+](=O)[O-])cc1` (stereo unspecified), the “activity change, negative = inhibition” value is reported as inactive: -3.02%.
In the case of `CCOc1ccc(CCNC(=O)CCSCc2cccc(Cl)c2)cc1OCC`, the Potency is reported as inconclusive: 44.7 µM [inhibitor, partial curve, poor fit].
With `CCc1ccc(C(=O)c2cn(Cc3ccccc3)c3cc(OC)c(OC)cc3c2=O)cc1` the Potency was inconclusive: 50.1 µM [inhibitor, partial curve, poor fit].
`CCc1ccc(-n2nc(C)c3c(C)cc(=O)n(CC(=O)N(CC)Cc4ccccc4)c32)cc1` was tested, and the Potency was inconclusive: 15.8 µM [inhibitor, full curve, poor fit].
In the case of `CCOc1ccccc1NC(=O)CSc1nnc(-n2nc(C)cc2C)n1N`, the “activity change, negative = inhibition” value is reported as inactive: 4.94%.
With `Cc1ccccc1CSCc1ccc(C(=O)NCCc2ccccc2)o1` the Potency was inconclusive: 44.7 µM [inhibitor, partial curve, poor fit].
`Nc1nccnc1C(=O)Nc1cccc(OCc2cccnc2)c1` was tested, and the “activity change, negative = inhibition” value was inactive: 2.36%.
With `COC(=O)C(=O)CC(=O)c1ccc(N2CCOCC2)cc1` the “activity change, negative = inhibition” value was inactive: 2.83%.
For `CCOc1cc(Cl)c(S(=O)(=O)n2cc(C)nc2CC)cc1Cl`, the Potency was inconclusive: 56.2 µM [inhibitor, partial curve, poor fit].
In the case of `Cc1cc(C)cc(NC(=O)CN(c2cccc(C)c2C)S(=O)(=O)c2ccccc2)c1`, the Potency is reported as inconclusive: 35.5 µM [inhibitor, single point].
With `Fc1ccc(Sc2ccncc2)cc1` the “activity change, negative = inhibition” value was inactive: -2.57%.
For `CSc1cccc(NC(=O)N2CCN(S(=O)(=O)c3ccc4c(ccn4C)c3)CC2)c1`, the Potency was inconclusive: 14.1 µM [inhibitor, partial curve, poor fit].
In the case of `Cc1cccc(NC(=O)CNC(=O)COC(=O)Cc2n[nH]c(=O)c3ccccc23)c1C`, the “activity change, negative = inhibition” value is reported as inactive: -1.7%.
With `COc1ccc2c(CNCCc3ccccc3OC)c(C(=O)O)n(Cc3ccc(F)cc3Cl)c2c1` the Potency was inconclusive: 35.5 µM [inhibitor, partial curve, poor fit].
With `COc1ccccc1C1NC(=S)NC2=C1CCc1ccccc12` (stereo unspecified) the “activity change, negative = inhibition” value was inactive: 70.5%.
With `Cc1ccc(S(=O)(=O)Nc2ccc(N(C)C)c(C(=O)O)c2)cc1` the “activity change, negative = inhibition” value was inactive: 6.87%.
`CCOc1ccccc1CNC(=O)c1cc2oc3ccccc3c2n1CC` was tested, and the Potency was inconclusive: 25.1 µM [inhibitor, full curve, poor fit].
`Cc1c(NC(=O)c2ccc(-c3ccc(F)cc3)o2)cccc1-c1nc2ncccc2o1` was tested, and the Potency was inconclusive: 50.1 µM [inhibitor, partial curve, poor fit].
In the case of `O=C(c1cnc(N2CCCCC2)c2ccccc12)N1CCN(c2ccc(F)cc2)CC1`, the Potency is reported as inconclusive: 17.8 µM [inhibitor, full curve, poor fit].
With `COc1cc2nc(N3CCN(C(=O)C4COc5ccccc5O4)CC3)nc(N)c2cc1OC` (stereo unspecified) the “activity change, negative = inhibition” value was inactive: -4.64%.
`CNS(=O)(=O)c1ccc(C(=O)NCC2(c3ccccc3)CC2)cc1` was tested, and the “activity change, negative = inhibition” value was inactive: -7.06%.
In the case of `Cc1cccc(N/C=C/C(=O)c2ccc([N+](=O)[O-])cc2)c1`, the “activity change, negative = inhibition” value is reported as inactive: 15.6%.
With `Cc1ccc2nc(N(Cc3cccnc3)C(=O)CCc3ccccc3)sc2c1` the Potency was inconclusive: 89.1 µM [inhibitor, single point].
`N#Cc1cccc(NC(=O)NCCNC(=O)Nc2cccc(C#N)c2)c1` was tested, and the “activity change, negative = inhibition” value was inactive: -11.6%.
For `Cc1cc(-c2ccc(C)c(S(=O)(=O)N(C(C)C)C3CCCCC3)c2)on1`, the Potency was inconclusive: 39.8 µM [inhibitor, partial curve, poor fit].
For `CCOC(=O)c1ccc(CN(Cc2ccc(Cl)cc2Cl)S(=O)(=O)c2cccc(Cl)c2)cc1`, the Potency was inconclusive: 2.82 µM [inhibitor, full curve, poor fit].
`Cc1ccc(C)c(N2CCN(CCCNC(=O)c3ccc4nc(C(C)C)oc4c3)CC2)c1` was tested, and the Potency was inconclusive: 20 µM [inhibitor, partial curve, poor fit].
`COc1cccc(-c2cn3c(n2)sc2cc(C(=O)NCCc4ccccc4)ccc23)c1` was tested, and the Potency was inconclusive: 15.8 µM [inhibitor, partial curve, poor fit].
In the case of `Cc1cccc(NC(c2nnc(-c3ccccc3)o2)c2ccc(F)cc2Cl)c1C` (stereo unspecified), the Potency is reported as inconclusive: 39.8 µM [inhibitor, full curve].
With `COc1ccc(-c2nc(CS(=O)CC(=O)NCc3ccccc3Cl)c(C)o2)cc1OC` (stereo unspecified) the Potency was inconclusive: 50.1 µM [inhibitor, partial curve, poor fit].
With `CC1=C(C(=O)OC2CCCCCC2)C(c2c(Cl)cccc2Cl)CC(=O)N1` (stereo unspecified) the “activity change, negative = inhibition” value was inactive: 144%.
In the case of `Cc1ccc(S(=O)(=O)Nc2nc3n(n2)C(c2ccc(Cl)cc2)C=C(c2ccccc2)N3)cc1` (stereo unspecified), the Potency is reported as inconclusive: 56.2 µM [inhibitor, partial curve, poor fit].
In the case of `CCCn1c2ccc(C)cc2c2nnc(SCCN3CCCCC3)nc21`, the Potency is reported as inconclusive: 50.1 µM [inhibitor, partial curve, poor fit].
For `CCCN(C(=O)Cn1nc(Cc2cccnc2)c2ccccc2c1=O)c1ccc(C(C)C)cc1`, the Potency was inconclusive: 44.7 µM [inhibitor, partial curve, poor fit].
